Assay results taken from PubChem BioAssay AID493208 (National Center for Advancing Translational Sciences (NCATS), 2011).
In all, about 44,000 compounds went through this assay and about 340 (0.77%) were called active. Another 5% or so got no clear call; they are omitted. Calls follow the shape of the dose curve; as a rule, active = well fitted inhibition curve with a large enough effect; inconclusive = small, poorly fitted or top-dose-only effect; inactive = flat fitted curve, though single readings scatter. The list shows a part of the results.

Experiment: Acumen qHTS Assay for Inhibitors of the mTORC1 Signaling Pathway in MEF (Tsc2-/-, p53-/-) Cells: Sytravon;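 also: plate controls were DMSO for no effect and rapamycin for full effect; nearly all actives have a fitted effect of over 50% in size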
Settings: phospho-rpS6 immunofluorescence/PI, 24 h; series mostly up to 38.3 µM; activity change, negative = inhibition: at the top concentration
Procedure, shortened: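 Readout is phospho-S6 Alexa 488 signal normalized to PI per well, reported as % active cells with thresholds set from rapamycin (7.5 nM) and DMSO controls. Cells: Tsc2-/-, p53-/- MEFs, 24 hrs compound at 37 C; PI cell number serves as viability.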

Activity change, negative = inhibition, inactive:
COCC(=O)N1c2nc(C(C)C)nn2C2(CCCCC2)[C@@H]2CCCC[C@@H]21 0.405%
Cc1c(C(=O)NCc2ccccc2)sc2nc3n(c(=O)c12)CCC3 -4.66%
CCCOC(=O)c1ccc(NC(=O)Cc2csc(C)n2)cc1 -9.52%
CSc1nc2sc3c(c2c(=O)n1-c1ccccc1C)CCCC3 -13.6%
CCC(=O)N1CCc2cc(Br)cc(S(=O)(=O)NCc3ccc(Cl)cc3)c21 -3.1%
Cc1cccc(N2C(=O)CSC23C(=O)N(Cc2cccc(C(F)(F)F)c2)c2ccccc23)c1 (stereo unspecified) -6.5%
C=Cc1ccc(CSc2nc(-c3ccccc3Cl)nc3c2Cc2c(CO)cnc(C)c2O3)cc1 -3.24%
Cc1nc(N2CCCC2)c2c(C(=O)N3CCN(c4cccc(Cl)c4)CC3)c(C)oc2n1 2.41%
COc1ccc(N2CCN(C(=O)c3ccc(CS(=O)(=O)c4ccc(Br)cc4)o3)CC2)cc1 2.43%
CCN(c1ccccc1)c1nnc(NC(=O)Nc2cccc(Br)c2)s1 4.22%
O=C1CC(c2nc3ccccc3n2CCCOc2ccccc2)CN1c1ccc(F)cc1 (stereo unspecified) 1.03%
Cc1cc(C)cc(-n2ccn(CC(=O)Nc3ccccc3C(F)(F)F)c(=O)c2=O)c1 -5.89%
CN(C)CCNC(=O)CCCN1C(=O)c2cccnc2Oc2ccc(Cl)cc21 2.13%
Cc1ccc(N2CC(C)Cn3c2nc2c3c(=O)n(CC(=O)O)c(=O)n2C)cc1 (stereo unspecified) 1.61%
CCN(c1ccc(OC)cc1)S(=O)(=O)c1nnc(NC(=O)c2ccccc2Cl)s1 -3.62%
CCOc1ccc(C2c3c(oc4ccc(C)cc4c3=O)C(=O)N2Cc2ccc3c(c2)OCO3)cc1OC (stereo unspecified) -26%
Cc1ccc(CNC(=O)c2ccc(CSCc3ccc(C)cc3)o2)cc1 0.896%
COc1ccc(NC(=O)c2sc3nc(C)c(C(=O)Nc4ccc(C)cc4C)c(-c4ccc(C)o4)c3c2N)cc1 -3.33%
Cc1ccc(Nc2nc(C)cc(C)n2)c(C(=O)O)c1 -3.31%
CCc1ccc(NC(=O)CN2C(=O)C3(SCC(=O)N3c3ccccc3)c3ccccc32)cc1 (stereo unspecified) -4.82%
CC1(C)CC(=O)c2cc(-c3nc(-c4ccc(Cl)cc4)cs3)c(=O)n(-c3ccc(Cl)cc3)c2C1 0.0376%
Cc1ccc(Cl)cc1NC(=O)CSC1=Nc2ccccc2C2=NC(Cc3ccccc3)C(=O)N12 (stereo unspecified) -19.7%
COc1ccc(NC(=O)Cn2nc(-c3ccncc3)ccc2=O)cc1Cl 1.16%
C#CC(C)(CC)NC(=O)c1cnn2c(C(F)F)cc(-c3ccccc3OC)nc12 (stereo unspecified) -2.44%
Cc1cc(C)n(CCc2nc3c4ccccc4nc(N4CCN(c5ccccc5F)CC4)n3n2)n1 -0.0434%
COc1ccc(CCNc2ncnc3c2cnn3-c2cccc(Cl)c2)cc1 5.62%
CC(C)CCNC(=O)c1ccc2c(c1)NC(=O)C(CS(=O)(=O)Cc1cccc(Br)c1)N2 (stereo unspecified) -9.25%
Cc1ccc(NC(=O)/C(C#N)=C/c2ccc(C)o2)cc1 -5.46%
Cc1ccc(Cn2ccnc2SCC(=O)NCc2ccc(F)cc2)cc1 -1.73%
COc1ccc(OCCCCn2c(C3CC(=O)N(c4cccc(Cl)c4)C3)nc3ccccc32)cc1 (stereo unspecified) -0.44%
CCOC(=O)C1CCN(CC(=O)N2CCCc3c2c(=O)oc2ccc(OCc4ccccc4)cc32)CC1 2.13%
COc1ccc(-c2onc(C)c2C)cc1S(=O)(=O)N(C)Cc1ccco1 4.92%
CN1C(=O)C2(SCC(=O)N2c2cccc(C(F)(F)F)c2)c2ccccc21 (stereo unspecified) -1.29%
CCOC(=O)C1CCC(CN(Cc2ccc(Cl)cc2)S(=O)(=O)c2ccc(Br)cc2)CC1 (stereo unspecified) 5.12%
CCCN1CCN(CCNC(=O)Nc2ccc(OC)c(OC)c2)CC1 4.79%
CCS(=O)(=O)N1CCc2cc(C(=O)NCCc3ccccc3)ccc21 -3.3%
CCOc1ccc(NC(=O)c2cn(C)c(=O)c3cc(OC)c(OC)cc23)cc1 -8.1%
CCS(=O)(=O)N1CC(=O)N(c2cccc(Cl)c2C)C(C)(C(=O)NC2CCCCC2)C1 (stereo unspecified) 3.24%
CCCN(c1ccccc1CC)S(=O)(=O)c1ccc2c(c1)CC(C)N2C(=O)C1CC1 (stereo unspecified) -17.8%
CCN(CCCNC(=O)c1cc2cc3ccc(C)cc3nc2s1)c1ccccc1 -16.6%
COCCNC(=O)CCCN1C(=O)c2ccccc2Sc2ncccc21 -0.343%
COc1ccc(-c2nc(CSCC(=O)N3CCN(c4ccc(OC)cc4)CC3)c(C)o2)cc1 2.03%
Cc1ccc(NC(=O)c2oc3ccc(S(=O)(=O)N(C)C4CCCCC4)cc3c2C)cc1Cl 11.9%
O=S(=O)(c1cccc(F)c1)N1CCC(c2nc3ccccc3s2)CC1 -3.01%
CCCCN(CCCC)CC(O)Cn1cc(/C=C/C(=O)c2ccccc2)c2ccccc21 (stereo unspecified) -20.8%
O=c1c(=O)n(-c2cccc(Cl)c2)ccn1Cc1cccc(F)c1 2.66%
CC(=O)N1CCc2cc(S(=O)(=O)NC(CC(C)C)C(=O)NCc3ccccc3)ccc21 (stereo unspecified) 0.0091%
COc1cccc2c1cc1c(=O)n(CC(=O)NC3CC3)nc(C)n12 3.63%
COc1cccc(-c2nc(CSCC(=O)NCCc3ccc(Cl)cc3)c(C)o2)c1 0.998%
CCCCC(CC)CNC(=O)CCCn1c(=O)[nH]c2ccsc2c1=O (stereo unspecified) -1.92%
Cc1ccc(-c2nc(N3CCN(c4ccccc4Cl)CC3)c3ccccc3n2)cc1 -2.83%
COc1ccc(C)cc1Nc1nc(-c2cccc(Cl)c2)c2c(n1)-c1ccccc1OC2 -1.22%
COc1cc(-c2nc(Cn3nnc(C(=O)Nc4cc(C)cc(C)c4)c3C)c(C)o2)cc(OC)c1OC -11.5%
CCOC(=O)c1cc(-c2ccccc2)n(CC(=O)N(C)c2ccc(OC)cc2)c1C -3.07%
CCOc1ccc(NC(=O)C(NC(=O)C2CCC(C)CC2)C(C)C)cc1 (stereo unspecified) 0.916%
COc1ccc(CNC(=O)CN(c2ccccc2)S(=O)(=O)N(C)C)cc1 1.38%
CCOC(=O)c1cc2c(=O)n3ccccc3nc2n(CCCOC)c1=NC(=O)C(C)Oc1ccccc1 (stereo unspecified) 0.695%
CN(C)S(=O)(=O)c1ccc(C(=O)N2CC(=O)Nc3ccc(Br)cc3C2c2ccc(F)cc2)cc1 (stereo unspecified) -18.2%
Cc1ccc(CNC(=O)c2ccc(Cn3c(SCc4ccccc4F)nc4cccnc43)cc2)cc1 0%
CC1CCN(C(=O)Cn2c(=O)oc3cc(S(=O)(=O)N4CCCCC4)ccc32)CC1 -5.68%
CCOc1ccc(CC(=O)NCCc2sc3nc(-c4ccc(OC)cc4)nn3c2C)cc1 -2.64%
